Laboratory results: patent US8492103B2 (priority 2011, dated 2013)
Like-named read-outs stand apart in the source and are kept apart here.

System: E. muris antibody
Conditions: for sensitivity in detecting Ehrlichia antibody compared to recombinant P28-19 protein: E. muris antibody
Description: To detect sensitivity of the P28 peptides (P28-1, P28-2, P28-3) or recombinant P28, peptides were coated on a NUNC Maxisorp plate (1:250), followed by incubation with E. muris serum. Finally, they were probed with goat anti-mouse AP (1:500) and results read on an ELISA reader after the addition of substrate.
Detection of anti-Ehrlichia antibodies using the Ehrlichia Hsp6043-63 and P28-1955-75 peptides. The inventors used ELISA to detect Ehrlichia antibodies in the sera of infected mice and dogs. Two hundred fifty nanograms of the peptides were coated on an ELISA plate (MaxiSorp, Nunc, Denmark) for 1 hour at room temperature. After washing, the plates were blocked with 5% FCS (in PBS-Tween) for 1 hour. The plates were further incubated with sera of infected mice or dogs for 1 hour at room temperature. Washing was followed by incubation with secondary antibody conjugated to alkaline phosphatase (AP) (Kirkegaard and Perry Laboratories, Gaithersburg, Md.) for 1 hour. After the addition of substrates (Blue Phos™ phosphatase substrate, Kirkegaard and Perry Laboratories, Gaithersburg, Md.), optical densities were measured using an ELISA plate reader (Molecular Devices, Sunnyvale, Calif.) at 650 nm after 30 min. incubation at room temperature. All assays were performed in triplicate wells, and the average values were calculated.

## akeeknataktfglkq (AKEEKNATAKTFGLKQ; listed as Ehrlichia muris) [P28-1955-75 peptide]
ELISA
  sensitivity in detecting Ehrlichia antibody compared to recombinant P28-19 protein: more sensitive
ELISA, listed as P28-19-1
  sensitivity in detecting Ehrlichia antibody compared to recombinant P28-19 protein: very sensitive
ELISA, listed as P28 peptide
  sensitivity in detecting Ehrlichia antibody compared to recombinant P28-19 protein: more sensitive
ELISA, sera of E. muris infected mice, day of infection
  early detection of Ehrlichia antibody: could detect Ehrlichia antibody even on day 7
Listed as peptide 1
  sensitivity in detecting Ehrlichia-specific antibody compared to the other P28-19 peptides: more sensitive
Peptide coated on plate, sera of mice infected with E. muris
  reaction with E. muris antibody (ELISA): reacted
